# Test results: the supplement of paper PMC11417369
# ± gives the standard deviation of the averaged measurements. This is one part of the list.
# Tested on: PfAP2-I AP2 domain 3 (GST-tagged)
# Test: gcPBM binding intensity (ln(normalized median fluorescence intensity)); higher = stronger DNA binding
# How it was run: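 Binding intensity is the highest Masliner-normalised natural-log median intensity over replicate spots in either probe orientation. To obtain it, GST-tagged P. falciparum DNA-binding domains made in E. coli were incubated for 1 h on an Agilent 4 × 180k array of primer-extended double-stranded 36-bp intergenic genomic probes plus negative controls. Detection used Alexa488 anti-GST antibody with scanning at 488 nm.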
row,Sequence,gcPBM binding intensity (ln)
1,TATATATATATATATTGTACAAAATATTTATATGTT [XGTACX_site436],9.41 ± 0.44
2,CTTATATATTGGGATAGTACTTTTAACTAAATAGAA [XGTACX_site5900],7.76 ± 0.38
3,TGTTGTATTTTTACAACACACATTTAATCCATTTAA [CACACA_site1507],7.49 ± 0.45
4,ACTTTACGAATTAAGAGTACTTATTTAAGGAACACT [XGTACX_site7919],7.91 ± 0.49
5,TTTTTATTGAGATACTTATATAATTTTATGAATAAA [XGTACX_negctrl_site311],7.79 ± 0.014
6,TTTTTTTGCTCTTTTTATATATATATATATATATAT [GTGCAC_negctrl_site70],9.46 ± 0.27
7,TTTGAAAAGTTGAAATGTACACATTTACACATATTT [XGTACX_site1641],7.8 ± 0.49
8,ATAATTATTCTTATGGTGCACTGAATATACATGTTG [GTGCAC_site9760],11.1 ± 0.47
9,ATAGCACATTTTTAAGCACACGTTTATTATATATAT [CACACA_site6084],8.94 ± 0.34
10,CAAAAATATATTTTTTGTACACAAAAAAAAAATAAA [XGTACX_site5229],7.95 ± 0.22
11,AAATACATATCATGTAGTACATATATATGTAGGTTA [XGTACX_site5392],7.75 ± 0.48
12,AAAACTATTAAATGTAGTACATAATTATTGAAATAA [XGTACX_site8716],7.72 ± 0.22
13,CTTTCCCTATATTGCTGTACATGTATTCAAAAAACA [XGTACX_site353],8.3 ± 0.42
14,CGCGAACATACATACACACACATATATATATCTGTA [CACACA_site4277],7.88 ± 0.46
15,AACACCCAAAAACACACACACATACATACATACATA [CACACA_site4411],8.24 ± 0.91
16,AACATTAATTTCCTATGTACTTAATATATTGTTTTT [XGTACX_site4440],7.83 ± 0.66
17,ATTTATATATATGTATGTACGTATGTGTGTATATGT [XGTACX_site7587],8.55 ± 0.27
18,ACCAATTTGACAAACTGTACAAAAAAAATATTAAAA [XGTACX_site1186],7.67 ± 0.49
19,TACACAAAAATAAACACACACACATATATATATATA [CACACA_site1000],9.45 ± 0.47
20,TATATATTCCTCCATAGTACAATAATAAAGATAAAA [XGTACX_site5785],7.93 ± 0.35
21,TTTATTTAAAATAAGTGTACTAGAAAAATTAAGCAG [XGTACX_site4982],8.55 ± 0.16
22,ATTCCTCATTAATATTCTTATTTTTTAATTCACATT [XGTACX_negctrl_site329],8.04 ± 0.54

row,Sequence,gcPBM binding intensity (ln)
1,TAAAAGGAGACATATACACACATATATATATATATA [CACACA_site5539],9.16 ± 0.18
2,TGTGATTATGATAAAAGTACAGAAATAAATATACTA [XGTACX_site38],7.92 ± 0.3
3,TTTTATAAAGAACACAGACACACAAAGAAAGAACCA [CACACA_site4174],8.2 ± 0.45
4,ATAAAAAGCTAAAAAGTGCAAAAAGTAAATATTTAA,10.2 ± 0.12
5,TATATATACTTAGAAACACACAAAAATATTTTATAA [CACACA_site2578],7.67 ± 0.4
6,TAATTAGTTTTTACTTTTTTTTTTTTTTTTCTATAT [CACACA_negctrl_site1024],7.24 ± 0.5
7,TTATGTATATTATAAATTAATACCTTTAAATTAATA [CACACA_negctrl_site67],7.33 ± 0.38
8,ATAATCCTGAAACACACACACACACCCATAAATAAA [CACACA_site481],8.04 ± 0.25
9,TATAACTTATTTTTTAGTACATATTATAGTTCATTT [XGTACX_site8649],7.79 ± 0.29
10,TTTATTTATATAATTACACACATATATACTCAAATG [CACACA_site5543],7.63 ± 0.47
11,ATATGTACTATACGCACACACACTCACATATTTATA [CACACA_site7510],9.08 ± 0.31
12,ATAGGGTTTCTACTTTAACATTTTTGAAATATTATA [GTGCAC_negctrl_site260],7.84 ± 0.37
13,TTCTTAATTCATACCATCAAAACATTTATTCATATC [CACACA_negctrl_site43],7.64 ± 0.63
14,TATTATAAATAAATAGAAAAAAAAATGATAAATGGA [CACACA_negctrl_site865],7.8 ± 0.65
15,ATAATAAATACACTAGTGCAAAATAATATATGTACT [GTGCAC_site9707],10.4 ± 0.22
16,ATATACAGAAAAAATTAAAATAAATATGCAAAACAA [CACACA_negctrl_site704],8.57 ± 0.52
17,AATATACGATTGTCATTCATACATTGTTAACATAGT [CACACA_negctrl_site1151],7.54 ± 0.59
18,TACAATGAACATGAAACACACAAAAAAAAAAAAAAA [CACACA_site1544],8 ± 0.47
19,ACATAGTAAATATTATGTACATAATATATACATTTA [XGTACX_site7500],7.57 ± 0.55
20,TAAAAATGATCAAAGGGTACAGTATTAATTAAAAAA [XGTACX_site1079],7.74 ± 0.73
21,TTTACTTTTTTTATATATTATTTATTATATAATATA [CACACA_negctrl_site211],7.61 ± 0.34
22,TACATATATATAATATATATATCATCATATTTTCTT [XGTACX_negctrl_site478],7.36 ± 0.37

row,Sequence,gcPBM binding intensity (ln)
1,CTTAAACTTTTAAATACACACATACAGACATACACA [CACACA_site6401],8.055 ± 0.021
2,TTTATATTTCATTTGTTATTTTTCTTGGTTCTATAT [TGCATGCA_negctrl_site23],7.78 ± 0.56
3,TTTTTTTTTTTTTTTTTTATATTTCATAATTTCATT [XGTACX_negctrl_site579],8.27 ± 0.6
4,TTTTGCCTGAACAATGCATGTTATTTTTATTTTTTT [TGCATGCA_site673],7.74 ± 1
5,TCATTTAAGTCATATTGAAATATGCATTATTCAAAA [CACACA_negctrl_site958],7.56 ± 0.55
6,AAATGTGTTAATGTGCGTACACATATATATAATATT [XGTACX_site2792],8.21 ± 0.35
7,ATCACTAATTTTTTTACACACCACAATTTAATTTTT [CACACA_site1186],8.34 ± 0.38
8,AATATATACACATGCGCACACACAAGTGGGAAATTT [CACACA_site8527],8.31 ± 0.47
9,AATGAAAAGAAATAATAAATAAATGATGACCAGCTG [GTGCAC_negctrl_site398],7.62 ± 0.69
10,TGATTATCCTTCAGGAGTACATATAATATAATATAT [XGTACX_site1479],8.045 ± 0.035
11,TTATAAAGAAAAAATTGCTTTAAAAGAAAGATTACA [CACACA_negctrl_site960],7.53 ± 0.58
12,AAAAACAAAATTTGGAGTACAGTTATAATATTATTA [XGTACX_site5245],8 ± 0.24
13,ATATATATATGAATCACACACAAAAAATATAGAGAT [CACACA_site3913],8.935 ± 0.007
14,TAATGTATTATTTAATGTACTTAAAAAATAAATAAA [XGTACX_site3296],7.77 ± 0.014
15,AATGAACAGACGAGCACACACACACCCATATATATA [CACACA_site1018],8.21 ± 0.73
16,ACCTTTAATAAATACACACACATAAAAAAAATATAT [CACACA_site5086],8.34 ± 0.2
17,GGGGAGCTATCTCCTGCACACACAATTTTTTTTTTT [CACACA_site8703],8.8 ± 0.69
18,CACAAATATATACATACACACATATATACGCATATA [CACACA_site395],7.79 ± 0.41
19,TATTATATGAATAATTGTACGAAATTTAAAAGACAA [XGTACX_site7558],7.86 ± 0.39
20,AACCAAATTTCACCATGTACATATTGATAAATATAT [XGTACX_site1374],7.96 ± 0.49
21,ATATGATTTGGATGTAGTACATATTTTTTTATGTTT [XGTACX_site1929],7.89 ± 0.51
22,GCACCAAAAAAAAGACGTACAGTTATATTAAAATAG [XGTACX_site8926],8.36 ± 0.32

row,Sequence,gcPBM binding intensity (ln)
1,AAATGAACAAGTGGCACACACACATTCTAACTAATT [CACACA_site3203],8.24 ± 0.53
2,CGGGGGTAGTTTTATGCACACGTTTATTAATGCTTC [CACACA_site5717],10.3 ± 0.11
3,ACATGAATATATACACGTACATATATACATATATAT [XGTACX_site5872],7.85 ± 0.42
4,ACCAATAATATACATACACACATAAATGTTTATATA [CACACA_site4328],7.74 ± 0.57
5,TGAAAAACTATCAGAGTGCATATATAGCTCGATACA,10 ± 0.38
6,TAAAATAATATATGGTGTACACAAAAGTATAAATAA [XGTACX_site4991],8.71 ± 0.81
7,ATATAAAAAAAATTTAGTACATATATATATATATAT [XGTACX_site8635],9.34 ± 0.65
8,AAAAAAATAATTAACACACACATGTATATCTATATA [CACACA_site3139],7.78 ± 0.53
9,TATATATATATATTATGTACTCATTTATTATCTTTT [XGTACX_site8051],9.25 ± 0.16
10,ATTACCATATTTTGTACACACATCTTTATCTCAATA [CACACA_site3217],8.39 ± 0.46
11,TAAAAATTAAAGTGTACACATATATATATATATATA [CACACA_site4781],9.47 ± 0.63
12,TTTTATGTTTATGTGGTGCATGTTTTGAAGAAAATA [GTGCAC_site9616],9.43 ± 0.18
13,TATAAACCGACGAAAACACACATATGTAAATATATA [CACACA_site491],7.66 ± 0.73
14,AAACCTATGTATATTATACACACTCCAAACTATTAT [CACACA_site8536],7.96 ± 0.65
15,AAAAAAAAAAAGCACACACACATATGCGTATATATA [CACACA_site954],7.99 ± 0.45
16,GGAGAAAAAAAAAAAAAACACACGGTACATTCAAAG [CACACA_site1503],7.78 ± 0.81
17,TTTTTTTCGTATATTACACACTATATATAGAAATTA [CACACA_site298],8 ± 0.4
18,AAAAAATGTAAATATAAACAACCAAAGGGGGTATAC [GTGCAC_negctrl_site465],8.12 ± 0.38
19,TTATTAAAGGAAAAATGTACATATAAATGAATATGT [XGTACX_site23],7.9 ± 0.68
20,GAAAAAAAACACATTGTGCACTTTTCCTTAAGTATA [GTGCAC_site9475],10.5 ± 0.21
21,ATAATATTTTATGGTTGTACTTTTAGTTCTTTTTTT [XGTACX_site5756],7.6 ± 0.65
22,ATTAAATATATTTTGCGTACACAAAAAAATACGTTC [XGTACX_site3862],8.44 ± 0.2
